Assay: soluble fraction after stress (log2 fold change); higher = more stays soluble; pooled small domains, quantitative proteomics
Conditions: stress: 50 degC
Summary of the method: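 After stress at 50°C, the amount of each protein still soluble was measured. This was done on pooled custom libraries of small protein domains, using high-throughput quantitative proteomics. The figure given is a base-two log fold change and stands for aggregation propensity, with higher values meaning more protein stays in solution.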

Row | Sequence | soluble fraction (log2)
1 | HMALDYYGVLGVNQDATNREIKSAYRKLARELHPDVNPSEEAAEKFKDVTTAYEVLSDPEKRRIVDMGGDP | -0.00512
2 | HMSENDYAILGVKESDSNEEIKKAFRRLAIENHPDKIEHLGETARKKAELNFSKINEAYQRIKKQRG | 0.0584
3 | HMLFDTARAYTDSEVKLGEAFDGIRTEVYIATKTAAQNAEDFWKDLHTSLTNLRTDYIDLYQFH | 0.0619
4 | HMRADRLISLVLLLQTRGRMTARELADELEVTERTIYRDVIALSSAGIPLYTDRGPGGGIALLDS | -1.68
5 | HMAAVLKQGSQGDSVKTVQQKLIRWGYLKGSADGIFGAKTKAAVIAFQKKNGLTADGIIGTRTAQALGISL | -0.126
6 | HMNNLYETLGVERTASQNEIKKAYRVLARKYHPDANPDDAVAEQKFKEVAMAYEILSDDQKREEYDRFGS | 0.184
7 | HMGGYEVQSGDTLWDLAVRFYGSGAKASAIYEANRDVIEEEAKKRGKGSSSSGYWIFPGTKLAI | -0.202
8 | HMSGKWALLVLFTLNKSNGTPVRFKQLERDIPDISQKMLTSVLRSLESDGLVSRKAYAEIPPRVEYSLT | -1.29
9 | HMATGTVKWFNSTKGYGFIAPDDGGKDIFVHISAVERAGLTGLQDNQKIDFEMQSGRDGRASASDLKL | -0.08
